Data taken from PubChem BioAssay AID485344 (National Center for Advancing Translational Sciences (NCATS), 2010).
In all, about 340,000 compounds went through this assay and about 6,900 (2%) were called active. No stated cut-off is given here; in the data, active means inhibition above about 30%; inactive means below that, where a call was filed. The list shows a part of the results, in another mix than the full data. Where no call is shown, the source filed none.

target: D(2) dopamine receptor (Homo sapiens) (UniProt P14416); assay: HTS Assay for Allosteric Antagonists of the Human D2 Dopamine Receptor: Primary Screen for Antagonists; conditions: HEK293 TREx D2 cells, calcium flux, dopamine EC80; at 10 µM; stronger effect = higher value; further: 0% is about no effect
How it was run: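 Measurement of antagonist activity uses fluorescent calcium dye in inducible HEK293 T-REx D2 cells: 10 s baseline, compound addition with 180 s read, EC80 dopamine addition with a further 180 s read.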

UniProt P14416, sequence (P14416 whole entry, looked up): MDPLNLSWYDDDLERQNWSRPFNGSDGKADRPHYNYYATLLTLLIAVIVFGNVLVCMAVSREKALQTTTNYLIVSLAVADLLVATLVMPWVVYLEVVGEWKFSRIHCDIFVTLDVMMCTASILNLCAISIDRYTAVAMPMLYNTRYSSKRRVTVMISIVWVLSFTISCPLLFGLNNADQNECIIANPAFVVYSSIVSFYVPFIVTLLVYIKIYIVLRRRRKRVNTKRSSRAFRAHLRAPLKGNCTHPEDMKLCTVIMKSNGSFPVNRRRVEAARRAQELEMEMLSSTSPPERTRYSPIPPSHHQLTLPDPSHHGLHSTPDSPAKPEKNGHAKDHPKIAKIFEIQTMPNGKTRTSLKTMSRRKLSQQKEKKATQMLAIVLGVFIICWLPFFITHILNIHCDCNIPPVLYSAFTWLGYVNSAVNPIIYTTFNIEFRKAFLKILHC

| SMILES | inhibition |
| --- | --- |
| CCOc1ccc(OCC)c(NC(=O)C2CCN(S(=O)(=O)c3cn(C)cn3)CC2)c1 | 8.2% |
| CCCC(=O)N1CC(=O)Nc2ccc(Cl)cc2C1c1ccccc1 (stereo unspecified) | 4.07% |
| Cc1ccc(N2C(=O)NC(NS(=O)(=O)c3ccc(Cl)cc3)(C(F)(F)F)C2=O)cc1C (stereo unspecified) | 14.2% |
| O=C(c1ccco1)n1nc(-c2ccc(Cl)cc2)nc1NCc1ccccc1 | -1.15% |
| COc1ccc(S(=O)(=O)N2CCC(c3ccncc3)CC2)cc1OC | 16.8% |
| CCc1ccc(NC(=O)Cn2c(=O)n(Cc3nc(-c4ccccc4)no3)c(=O)c3cc4c(cc32)OCO4)cc1 | -1.63% |
| Cc1cccc(C(=O)Nc2ccc(C(=O)OCc3cc(=O)n4nc(C5CC5)sc4n3)cc2)c1 | -8.75% |
| COc1ccc(S(=O)(=O)NCC(c2ccc(N(C)C)cc2)N2CCc3ccccc32)cc1 (stereo unspecified) | -10.7% |
| CCOc1cc(C2C(C(=O)Nc3ccc(OC)cc3)=C(C)Nc3nc(SC)nn32)ccc1O (stereo unspecified) | 21.4% |
| Cc1ccc2c(=O)cc(C(=O)Nc3ccc(S(=O)(=O)Nc4nc(C)cc(C)n4)cc3)oc2c1 | -2.85% |
| COc1ccc(NC(=O)C2CCCN(S(=O)(=O)c3ccc4c(c3)CCCC(=O)N4)C2)cc1OC (stereo unspecified) | 4.55% |
| C=CCNc1nc(N2CCOCC2)nc(N2CCOCC2)n1 | active: 31.2% |
| CCOC(=O)CSc1nc2c([nH]c3ccccc32)c(=O)n1-c1ccc(OC)cc1 | 11.3% |
| COc1ccc(N(Cc2cccs2)C(=O)c2ccc(Br)o2)cc1 | 1.03% |
| CCC1CN(C(=O)C2CCN(S(=O)(=O)c3c(C)noc3/C=C/c3ccccc3F)CC2)c2cc(Cl)ccc2O1 (stereo unspecified) | -10.8% |
| CCOc1ccc(/C=C/c2nc(C#N)c(N3CCCCC3)o2)cc1 | -4.58% |
| Cc1ccc(-c2nc3ccccc3s2)cc1NC(=O)COc1ccccc1 | 9.02% |
| Cc1ccc(OCC(=O)NCC2(N3CCOCC3)CCCCC2)cc1C | 5.13% |
| CCOC(=O)c1cccc(NC(=O)CCc2c(C)nn(-c3ccc(N4CCCC4)nn3)c2C)c1 | 18.2% |
| CCCCN(CCCC)CCNC(=O)c1cn(CC)c2ccc(S(=O)(=O)N3CCc4ccccc4C3)cc2c1=O | 7.3% |
| CCCN(CCC)CCNC(=O)CN1C(=O)COc2ccc(S(=O)(=O)N3CCC(C)CC3)cc21 | -10.8% |

| SMILES | inhibition |
| --- | --- |
| COc1ccc(Nc2ncc(C(=O)Nc3cccc(OC)c3)c3ccccc23)cc1 | -0.483% |
| Cc1ccc(Cl)cc1N(C)C(=O)c1sc2nc3n(c(=O)c2c1C)CCCC3 | 14.4% |
| COC(=O)c1cc(NC2(c3ccccc3)C(=O)c3ccccc3C2=O)cc(C(=O)OC)c1 | 6.03% |
| Cc1ccc(NC(=O)CSc2nc(=O)n(Cc3ccncc3)c3c2CCC3)cc1Cl | -12% |
| CCOc1cc(CNC(=O)CSc2n[nH]c(-c3ccccc3)n2)cc(OCC)c1OCC | -1.22% |
| O=C(Nc1ccccc1)C1CCN(S(=O)(=O)c2ccc3c(c2)CCCN3C(=O)C2CCC2)CC1 | 6.1% |
| COc1ccc(Cn2c(CCC(=O)Nc3cc(C)cc(C)c3)nc3cccnc32)cc1 | -12% |
| Cc1ccc(CNC(=O)CCCCCn2c(=O)c3sccc3n(CC(=O)C(C)(C)C)c2=O)cc1 | 6.4% |
| Cc1ccc2c(CN3CCN(c4ccc(Cl)cc4)CC3)cc(=O)oc2c1 | 11.5% |
| CC(C)c1ccc(NC(=S)NC2CCN(Cc3ccccc3)CC2)cc1 | active: 51.8% |
| Cc1ccc(SCC(=O)Nc2ccc(O)c(-c3nc4cc(C)ccc4o3)c2)cc1 | -18.5% |
| Cc1ccc(NC(=O)NC(C)c2c(-n3cccc3)sc(C)c2C)c(C)c1 (stereo unspecified) | 1.2% |
| O=c1[nH]c(=O)n(C2CCCO2)cc1F (stereo unspecified) | active: 32.1% |
| CCOC(=O)CCc1c(C)c2cc3c(c(C)c2oc1=O)OCN(CCc1ccccc1OC)C3 | 16.3% |
| CCOc1ccc(CCNC(=O)c2ccc3nc(N4CCC(C)CC4)sc3c2)cc1OCC | 0.925% |
| CCC(C)n1c(=O)c2sccc2n2c(CCCC(=O)Nc3ccc(F)cc3)nnc12 (stereo unspecified) | 2.39% |
| CSc1ncc(Cl)c(C(=O)Nc2c(C(=O)c3ccc(C)cc3)oc3ccccc23)n1 | 2.5% |
| COc1ccc(C(=O)N(Cc2ccco2)Cc2ccccc2F)cc1Cl | -7.13% |
| NS(=O)(=O)c1ccc(N2CCN(C(=O)C3COc4ccccc4O3)CC2)nc1 (stereo unspecified) | active: 34.8% |
| O=C(NCC(c1ccco1)S(=O)(=O)c1ccc(Cl)cc1)c1ccc(C(F)(F)F)cc1 (stereo unspecified) | 10.6% |
| COc1cccc(CC(=O)Nc2c(C(=O)N3CCN(c4ccccc4)CC3)oc3ccccc23)c1 | -3.79% |

| SMILES | inhibition |
| --- | --- |
| Cc1ccc(Cn2c(SCc3ccc(C(=O)O)cc3)nc3cccnc32)cc1 | 1.61% |
| O=C(CCC(=O)N1CCOc2ccccc21)NCc1cccs1 | 6.03% |
| CCN(c1ccccc1)c1ncnc2c1cnn2-c1ccc(OC)cc1 | 5.25% |
| Cc1ccc2[nH]c3c(=O)n(CC(=O)N4CCN(c5ccccc5F)CC4)ncc3c2c1 | -9.77% |
| O=S(=O)(NCCc1nnc2ccc(SCc3cccc(Cl)c3)nn12)c1ccccc1 | 1.36% |
| Cc1cc(N2CCN(C)CC2)nc2ccc(NC(=O)Nc3ccc(F)cc3)cc12 | -5.46% |
| CC(=O)N1CCCc2cc(S(=O)(=O)N3CCCC(C(=O)Nc4ccc(F)cc4F)C3)ccc21 (stereo unspecified) | 20.9% |
| COc1ccc(Cn2c(CNC(=O)Cc3ccc(OC)c(OC)c3)nc3cccnc32)cc1 | -8.05% |
| Brc1ccc(-c2cn3cc(Cc4ccccc4)sc3n2)cc1 | 6.53% |
| CC1CCN(S(=O)(=O)c2ccc3[nH]ccc3c2)CC1 | 7.72% |
| CCOC(=O)c1ccc(NC(=O)c2noc3c2CCCC3)cc1 | 6.46% |
| CCOc1ccc(-c2cc3nc(C4CCN(C(=O)OC(C)(C)C)CC4)c(C(=O)Nc4cccc(Cl)c4C)cn3n2)cc1 | 3.72% |
| O=C1NC(NS(=O)(=O)c2ccccc2)(C(F)(F)F)C(=O)N1CCc1ccccc1 (stereo unspecified) | 1.99% |
| Cn1cc(CCCC(=O)NCc2ccc(F)cc2)c2ccccc21 | 5.31% |
| CC(C)c1ccc(NC(=O)Cn2nnc(C(=O)NCCc3ccccc3)c2N)cc1 | 5.71% |
| COc1cc(Cl)c(NC(=O)CN2C(=O)c3cccnc3Sc3ccccc32)c(OC)c1 | -1.66% |
| COc1ccc(NC(=O)C(Cc2ccccc2)NS(=O)(=O)c2ccc3c(c2)oc(=O)n3C)c(OC)c1 (stereo unspecified) | 18.5% |
| Cc1cccc2nc(-c3ccc(Cl)s3)c(Nc3ccc4c(c3)OCCO4)n12 | -3.92% |
| Cc1nc(N2CCOCC2)c2c(C(=O)N3CCN(c4cccc(C(F)(F)F)c4)CC3)c(C)oc2n1 | 6.05% |
